Laboratory results taken from paper PMC10668032.
Some of the results follow. At the low end of the ranking the order means little.

Biological target: SIX1-Q177R homeodomain (UniProt Q15475)
Test: universal protein binding microarray
Conditions: Universal all-10-mer PBM (8x60K, AMADID 030236), 300 nM GST-tagged protein, Alexa Fluor 488 anti-GST; buffer, salt, pH and temperature not stated; high values mean tight binding; most listed sequences are background and not binding sites; double strand, one strand shown

| Sequence | binding signal [E-score] |
| --- | --- |
| AAAAGGCA | -0.208 |
| ATCTTATA | -0.142 |
| AGTCTAGA | -0.172 |
| GCTACCCC | 0.23 |
| AGGCGCGG | 0.0386 |
| AGATGCAC | 0.0824 |
| CCGATATC | 0.0105 |
| CACTGGCA | 0.28 |
| GTCCCAGA | -0.18 |
| AGAGCTAC | -0.0507 |
| AACTTCTC | -0.163 |
| AAATGACG | -0.0479 |
| CTGTACTC | -0.103 |
| CAGTATGC | -0.252 |
| CGAGGATA | 0.114 |
| TGAAACAA | -0.166 |
| ACAACTTA | -0.128 |
| CTCTCCAC | -0.0716 |
| AATTTACG | -0.297 |
| ATATCTCG | -0.275 |
| CCATAAGA | -0.0471 |
| AAAATGCC | -0.147 |

| Sequence | binding signal [E-score] |
| --- | --- |
| AAAGCCTT | -0.256 |
| TTCCACAA | -0.0257 |
| CTTGTGTC | 0.168 |
| CTTGAGGA | -0.138 |
| GACCAGTC | -0.22 |
| GATTACGA | -0.0295 |
| CACACGAA | 0.217 |
| AGTTTAGG | -0.0521 |
| CTAGCATA | -0.225 |
| GGCAATAA | -0.108 |
| GTCCCCGA | 0.0267 |
| CGACAAGA | -0.0968 |
| CTTATACC | -0.0517 |
| CACCTAAA | 0.207 |
| AACGGAGA | -0.0541 |
| CAGGTCTA | -0.218 |
| CCATCAGC | 0.11 |
| CTCGTTAC | 0.00123 |
| GGTTTAAA | 0.12 |
| ACCGTACA | 0.235 |
| TTCCGCAA | -0.0173 |
| TAGAGAAA | 0.0615 |

| Sequence | binding signal [E-score] |
| --- | --- |
| AGTGCGTA | 0.00653 |
| CACCATAA | 0.303 |
| CAAAGAGA | -0.203 |
| AGCCGTCC | -0.17 |
| AGAAGAGG | -0.131 |
| CCGTTCCG | -0.13 |
| AGGGATCG | 0.216 |
| GGCATTTA | -0.0126 |
| CCTGGGAG | 0.129 |
| CTAAGTCC | -0.22 |
| CACCTTTA | 0.223 |
| AATTTCTC | -0.219 |
| CCGGAATC | -0.0601 |
| GGGCCAAC | 0.000965 |
| CAGACCTG | -0.291 |
| AATCGGTA | 0.0182 |
| GGAACCCA | 0.181 |
| AATCGACG | -0.213 |
| CCTGTCTA | 0.0327 |
| AATACCCC | 0.185 |
| GATCCAGC | 0.0517 |
| CCCGGGCC | 0.103 |

| Sequence | binding signal [E-score] |
| --- | --- |
| TTCTCCAA | -0.12 |
| CCCCCCGC | 0.248 |
| GCAATAGA | -0.0871 |
| AACTCCGA | -0.042 |
| ACCGTCGA | 0.0178 |
| CATCCGGA | 0.00453 |
| ACCTTCCA | 0.0566 |
| TAAATCGA | -0.163 |
| GCCTCTAC | -0.037 |
| CAATGGAA | 0.04 |
| CCTTGTGC | 0.037 |
| AAGAGGCC | -0.323 |
| ACAATGCA | -0.0864 |
| ACAGCACG | 0.0102 |
| ACCCGCCC | 0.243 |
| GAGTGTAA | 0.42 |
| GCAATCGA | -0.0211 |
| AGGTTAGA | -0.208 |
| CCAGTGCA | 0.135 |
| AGCTAATA | -0.0377 |
| AAACCACC | -0.0529 |
| ACGACTCT | 0.147 |

| Sequence | binding signal [E-score] |
| --- | --- |
| AACAACGG | -0.042 |
| TCGTTCAA | -0.0522 |
| GTCACGAA | 0.128 |
| GCTCCATA | -0.103 |
| GGAGATAA | -0.287 |
| AAGTGATA | -0.0681 |
| ATTTCTCA | -0.274 |
| CTATGACA | 0.117 |
| ACATAGAA | -0.0382 |
| CTTTGTAC | -0.0684 |
| AACCAATT | -0.163 |
| AATTTGAA | -0.313 |
| CGATAGAA | -0.0273 |
| GTAGCAGA | -0.18 |
| CAGGGCAA | -0.12 |
| CACACAGA | 0.0748 |
| CGGGGTCA | 0.269 |
| ACGGTGAA | -0.0611 |
| GATTCAAC | -0.022 |
| TACTGCAA | -0.00197 |
| AAGCTTCT | -0.317 |
| CCTCAACC | 0.0392 |
